Measurements: PubChem BioAssay (Tox21)
Inconclusive means that the source gave no clear call. Such entries were picked first, then a sample of the others. For some assays here: Potencies of inconclusive entries are doubtful fits and often do not repeat. The source made the active and inactive calls. Unless noted, calls follow the shape of the full dose curve.

Tests used:
[1] = qHTS assay to identify small molecule antagonists of the peroxisome proliferator-activated receptor delta (PPARd) signaling pathway - cell viability counter screen (AID 743213; active = well fitted curve in the direction sought with a large enough effect in the repeat runs; inconclusive = weak or mixed curves; inactive = no such curve, though single readings can be large; an effect the other way counts as inactive or inconclusive; also: nearly all actives have a fitted effect of over 50% in size; also: potency is read from the fitted curve at half-maximal effect); conditions: PPARd-bla HEK293H viability, CellTiter-Glo luminescence, 17 h; viability change, negative = cytotoxic: at 62 µM (top of the series) unless noted
Method in brief: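 Cytotoxicity counter screen: CellTiter-Glo luminescence read 30 min after addition, in the same wells as the reporter assay. There, PPARd UAS-bla HEK293H cells (3000/well) were treated 17 h at 37 C with compound and 300 nM L165041.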

[2] = target: Bile acid receptor (Homo sapiens) (UniProt Q96RI1); test: qHTS assay to identify small molecule antagonists of the farnesoid-X-receptor (FXR) signaling pathway (AID 743217; active = well fitted inhibition curve with a large enough effect in the signal ratio in the repeat runs, not every such curve was filed as active; inconclusive = weak or mixed curves, or effect the other way; inactive = no such curve, though single readings can be large or run the other way; the % refers to the signal ratio; also: potency is read from the fitted curve at half-maximal effect; as to activity change, negative = inhibition: % is scaled to controls: 0 for no effect and ±100 for the full control effect); conditions: HEK293T FXR-UAS-bla, beta-lactamase ratio, CDCA-stimulated, 16 h; activity change, negative = inhibition: at 62.6 µM (top of the series) unless noted
Method in brief: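 FRET fluorescence after 2 h room-temperature LiveBLAzer loading gives the readout. Prior step: FXR-bla HEK 293T cells, seeded and incubated 5 h, received test compounds plus 50 uM final CDCA for 16 h at 37 °C.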

[3] = qHTS assay to identify small molecule agonists of the farnesoid-X-receptor (FXR) signaling pathway - cell viability counter screen (AID 743218; active = well fitted curve in the direction sought with a large enough effect in the repeat runs; inconclusive = weak or mixed curves; inactive = no such curve, though single readings can be large; an effect the other way counts as inactive or inconclusive; also: nearly all actives have a fitted effect of over 45% in size; also: potency is read from the fitted curve at half-maximal effect; as to viability change, negative = cytotoxic: % is scaled to controls: 0 for no effect and ±100 for the full control effect); conditions: FXR-bla HEK293T viability, CellTiter-Glo luminescence, 16 h; viability change, negative = cytotoxic: at 62.6 µM (top of the series) unless noted
Method in brief: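 Readout: CellTiter-Glo luminescence, 30 min RT, multiplexed after the FXR-bla FRET reading. HEK 293T FXR-UAS-bla cells received compound 5 h post-plating and were incubated 16 h at 37 C.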

[4] = target: Bile acid receptor (Homo sapiens) (UniProt Q96RI1); test: qHTS assay to identify small molecule agonists of the farnesoid-X-receptor (FXR) signaling pathway (AID 743220; active = well fitted activation curve with a large enough effect in the signal ratio in the repeat runs, not every such curve was filed as active; inconclusive = weak or mixed curves, or effect the other way; the % refers to the signal ratio; also: % is scaled to controls: 0 for no effect and ±100 for the full control effect); conditions: HEK293T FXR-UAS-bla, beta-lactamase FRET ratio, 16 h; activation: at 62.6 µM (top of the series) unless noted
Method in brief: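 FXR-UAS-bla HEK 293T cells carrying a UAS-driven beta-lactamase reporter were plated for 5 h at 37C/5% CO2, then exposed to DMSO-dissolved Tox21 10K compounds for 16 h at 37C. A LiveBLAzer B/G FRET substrate was loaded for 2 h at room temperature before fluorescence reading.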

[5] = target: Vitamin D3 receptor (Homo sapiens) (UniProt P11473); test: qHTS assay to identify small molecule antagonists of the vitamin D receptor (VDR) signaling pathway (AID 743223; active = well fitted inhibition curve with a large enough effect in the signal ratio in the repeat runs, not every such curve was filed as active; inconclusive = weak or mixed curves, or effect the other way; inactive = no such curve, though single readings can be large or run the other way; the % refers to the signal ratio; also: potency is read from the fitted curve at half-maximal effect); conditions: VDR-UAS-bla HEK293T, beta-lactamase FRET ratio, 16 h; activity change, negative = inhibition: at 61 µM (top of the series) unless noted
Method in brief: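 Antagonist mode: compound added to VDR-bla cells alongside agonist 1alpha,25-dihydroxyvitamin D3 (3 nM final), incubation 16 h at 37C. Read-out is LiveBLAzer FRET fluorescence, 2 h at room temperature.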

[6] = qHTS assay to identify small molecule agonists of the endoplasmic reticulum stress response signaling pathway - cell viability counter screen (AID 1159517); also: nearly all actives have a fitted effect of over 50% in size; also: potency is read from the fitted curve at half-maximal effect
Method in brief: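 In parallel with the ESRE reporter read, cytotoxicity was scored by CellTiter-Glo luminescence (30 min, room temperature) on HeLa ESRE-bla cells dosed for 5 hr.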

[7] = target: Nuclear receptor ROR-gamma (Homo sapiens) (UniProt P51449); test: qHTS assay to identify small molecule antagonists of the retinoid-related orphan receptor gamma (ROR-gamma) signaling pathway (AID 1159521; active = well fitted curve in the direction sought with a large enough effect in the repeat runs; inconclusive = weak or mixed curves; inactive = no such curve, though single readings can be large; an effect the other way counts as inactive or inconclusive; also: nearly all actives have a fitted effect of over 50% in size; also: potency is read from the fitted curve at half-maximal effect)
Method in brief: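 Antagonist read-out: drop in luminescence (ONE-Glo) from an RORE-LUC reporter in CHO cells with doxycycline-inducible ROR-gamma; 2 hr compound pretreatment, 1 uM doxycycline, 16 hr incubation at 37 C.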

[8] = qHTS assay to identify small molecule antagonists of the retinoid acid receptor (RAR) signaling pathway - cell viability counter screen (AID 1159551; active = well fitted curve in the direction sought with a large enough effect in the repeat runs; inconclusive = weak or mixed curves; inactive = no such curve, though single readings can be large; an effect the other way counts as inactive or inconclusive; also: nearly all actives have a fitted effect of over 35% in size; also: potency is read from the fitted curve at half-maximal effect)
Method in brief: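 Viability of C3RL4 cells is quantified from ATP by luminescence after 6 h treatment at 37 C with compounds and 1 uM retinol.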

[9] = qHTS assay to identify small molecule antagonists of the vitamin D receptor (VDR) signaling pathway - cell viability counter screen (AID 743225; active = well fitted curve in the direction sought with a large enough effect in the repeat runs; inconclusive = weak or mixed curves; inactive = no such curve, though single readings can be large; an effect the other way counts as inactive or inconclusive; also: nearly all actives have a fitted effect of over 50% in size; also: potency is read from the fitted curve at half-maximal effect); conditions: VDR-bla HEK293T viability, CellTiter-Glo luminescence, 16 h; viability change, negative = cytotoxic: at 61 µM (top of the series) unless noted
Method in brief: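 Cytotoxicity counter screen read by CellTiter-Glo luminescence (30 min, room temperature) in the same wells as the VDR-bla antagonist readout. HEK 293T VDR-UAS-bla cells had 16 h at 37C with compound and 3 nM (final) 1-alpha,25-dihydroxyvitamin D3, then 2 h with FRET substrate.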

[10] = target: Retinoic acid receptor RXR-alpha (Homo sapiens) (UniProt P19793); test: qHTS assay to identify small molecule agonists of the RXR signaling pathway (AID 1159527); conditions: HEK293T RXRa-UAS-bla, beta-lactamase ratio, 16 h; activation: at 76.8 µM (top of the series) unless noted; also: nearly all actives have a fitted effect of over 35% in size; also: potency is read from the fitted curve at half-maximal effect
Method in brief: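 Agonist-mode beta-lactamase reporter assay: HEK 293T RXR-alpha-UAS-bla cells treated 16 hr at 37 C with compounds, 9-cis retinoic acid as positive control. LiveBLAzer FRET substrate, 405 nm excitation, 460/530 nm emission.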

[11] = target: Peroxisome proliferator-activated receptor delta (Homo sapiens) (UniProt Q03181); test: qHTS assay to identify small molecule agonists of the peroxisome proliferator-activated receptor delta (PPARd) signaling pathway (AID 743212); conditions: HEK293H PPARd-UAS-bla, beta-lactamase FRET ratio, 17 h; activation: at 62.6 µM (top of the series) unless noted; also: potency is read from the fitted curve at half-maximal effect
Method in brief: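 Tox21 library screened in GeneBLAzer PPARd UAS-bla HEK293H cells. After compound treatment at 37 C, a FRET-based beta-lactamase substrate was applied for 2 h and fluorescence recorded.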

[12] = target: Peroxisome proliferator-activated receptor delta (Homo sapiens) (UniProt Q03181); test: qHTS assay to identify small molecule antagonists of the peroxisome proliferator-activated receptor delta (PPARd) signaling pathway (AID 743215; active = well fitted inhibition curve with a large enough effect in the signal ratio in the repeat runs, not every such curve was filed as active; inconclusive = weak or mixed curves, or effect the other way; inactive = no such curve, though single readings can be large or run the other way; the % refers to the signal ratio;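 also: cells stimulated with agonist L165041 at 300 nM final during compound exposure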; also: potency is read from the fitted curve at half-maximal effect); conditions: HEK293H PPARd-UAS-bla, beta-lactamase FRET ratio, antagonist, 17 h; ratio activity, negative = inhibition: at 62 µM (top of the series) unless noted
Method in brief: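 Fluorescence from cleaved LiveBLAzer B/G FRET substrate (2 h, room temperature) reports PPARd-driven beta-lactamase in HEK293H UAS-bla cells. Cells had been treated 17 h at 37 C with compound plus 300 nM final L165041.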

[13] = qHTS assay to identify small molecule antagonists of the farnesoid-X-receptor (FXR) signaling pathway - cell viability counter screen (AID 743221; active = well fitted cell-killing curve with a large enough effect in the repeat runs, not every such curve was filed as active; inconclusive = weak or mixed curves, or effect the other way; inactive = no such curve, though single readings can be large or run the other way); conditions: FXR-bla HEK293T viability, CellTiter-Glo luminescence, 16 h; activity change, negative = cytotoxicity: at 62.6 µM (top of the series)
Method in brief: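 Cytotoxicity counter screen run in the FXR-bla reporter wells: HEK 293T cells exposed to compound with 50 uM (final) chenodeoxycholic acid for 16 h, 37 C, then viability measured by CellTiter-Glo luminescence after 30 min, room temperature.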

[14] = target: Vitamin D3 receptor (Homo sapiens) (UniProt P11473); test: qHTS assay to identify small molecule agonists of the vitamin D receptor (VDR) signaling pathway (AID 743222); conditions: HEK293T VDR-UAS-bla, beta-lactamase FRET ratio, 16 h; activation: at 63.5 µM (top of the series) unless noted; also: % is scaled to controls: 0 for no effect and ±100 for the full control effect
Method in brief: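 Following 4 h attachment at 37C, VDR-bla cells (2,000 per well) received DMSO-dissolved compounds or controls. After 16 h incubation, LiveBLAzer B/G FRET substrate was added and fluorescence read 2 h later at room temperature.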

[15] = qHTS assay to identify small molecule agonists of the vitamin D receptor (VDR) signaling pathway - cell viability counter screen (AID 743224; active = well fitted curve in the direction sought with a large enough effect in the repeat runs; inconclusive = weak or mixed curves; inactive = no such curve, though single readings can be large; an effect the other way counts as inactive or inconclusive); conditions: VDR-bla HEK293T viability, CellTiter-Glo luminescence, 16 h; activity change, negative = cytotoxicity: at 62.6 µM (top of the series)
Method in brief: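 In parallel with the bla FRET readout, cytotoxicity toward VDR-bla cells after 16 h compound exposure was assessed by CellTiter-Glo, with luminescence recorded after a 30 min room-temperature incubation.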

[16] = qHTS assay to identify small molecule agonists of the AP-1 signaling pathway - cell viability counter screen (AID 1159525); also: nearly all actives have a fitted effect of over 55% in size; also: potency is read from the fitted curve at half-maximal effect
Method in brief: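 Same-well cytotoxicity counter screen of the Tox21 10K library in ME-180 cells. The readout is ATP-dependent luminescence after 5 h compound treatment. Data are normalised to DMSO and tetra n-octyl ammonium bromide controls.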

[17] = qHTS assay to identify small molecule agonists of the AP-1 signaling pathway (AID 1159526); conditions: ME-180 (cervical carcinoma) AP-1-bla reporter, beta-lactamase FRET ratio, 5 h; activation: at 76.8 µM (top of the series) unless noted; also: potency is read from the fitted curve at half-maximal effect
[18] = qHTS assay to identify small molecule agonists of the RXR signaling pathway - cell viability counter screen (AID 1159529; active = well fitted curve in the direction sought with a large enough effect in the repeat runs; inconclusive = weak or mixed curves; inactive = no such curve, though single readings can be large; an effect the other way counts as inactive or inconclusive)
Method in brief: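 CellTiter-Glo luminescence gave viability in the wells also read for beta-lactamase. Cells (RXR-alpha-UAS-bla HEK 293T, 2% charcoal-stripped FBS medium) had 5 hr plating, then 16 hr compound exposure at 37 C; tetraoctyl ammonium bromide served as positive control.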
Tags tell the direction and shape of the fitted curve or compound fluorescence and quenching.

Chain of UniProt Q03181 (Q03181 whole entry, looked up): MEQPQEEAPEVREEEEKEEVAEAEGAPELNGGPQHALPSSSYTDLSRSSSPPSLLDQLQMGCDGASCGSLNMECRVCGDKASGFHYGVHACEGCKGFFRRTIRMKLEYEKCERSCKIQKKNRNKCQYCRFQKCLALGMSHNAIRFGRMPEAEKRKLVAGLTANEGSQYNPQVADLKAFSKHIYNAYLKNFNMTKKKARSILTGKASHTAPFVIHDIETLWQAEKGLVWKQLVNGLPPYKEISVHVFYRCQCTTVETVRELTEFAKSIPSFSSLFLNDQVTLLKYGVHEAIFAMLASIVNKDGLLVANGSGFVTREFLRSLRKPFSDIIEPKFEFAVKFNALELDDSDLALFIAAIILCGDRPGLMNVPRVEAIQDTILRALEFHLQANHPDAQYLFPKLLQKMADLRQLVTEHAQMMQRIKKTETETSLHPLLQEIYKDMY
Chain of UniProt P11473 (P11473 whole entry, looked up): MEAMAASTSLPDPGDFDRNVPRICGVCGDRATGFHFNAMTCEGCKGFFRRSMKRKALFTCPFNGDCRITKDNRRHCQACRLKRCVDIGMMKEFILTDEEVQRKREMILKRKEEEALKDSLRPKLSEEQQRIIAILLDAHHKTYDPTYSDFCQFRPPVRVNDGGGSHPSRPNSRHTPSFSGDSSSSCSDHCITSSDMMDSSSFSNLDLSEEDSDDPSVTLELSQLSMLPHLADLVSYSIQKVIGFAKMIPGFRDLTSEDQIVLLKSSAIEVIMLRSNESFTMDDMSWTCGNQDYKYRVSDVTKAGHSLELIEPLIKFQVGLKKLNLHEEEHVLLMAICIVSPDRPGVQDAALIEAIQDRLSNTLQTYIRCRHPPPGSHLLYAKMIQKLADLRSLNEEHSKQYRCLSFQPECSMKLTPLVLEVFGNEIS
Chain of UniProt Q96RI1 (Q96RI1 whole entry, looked up): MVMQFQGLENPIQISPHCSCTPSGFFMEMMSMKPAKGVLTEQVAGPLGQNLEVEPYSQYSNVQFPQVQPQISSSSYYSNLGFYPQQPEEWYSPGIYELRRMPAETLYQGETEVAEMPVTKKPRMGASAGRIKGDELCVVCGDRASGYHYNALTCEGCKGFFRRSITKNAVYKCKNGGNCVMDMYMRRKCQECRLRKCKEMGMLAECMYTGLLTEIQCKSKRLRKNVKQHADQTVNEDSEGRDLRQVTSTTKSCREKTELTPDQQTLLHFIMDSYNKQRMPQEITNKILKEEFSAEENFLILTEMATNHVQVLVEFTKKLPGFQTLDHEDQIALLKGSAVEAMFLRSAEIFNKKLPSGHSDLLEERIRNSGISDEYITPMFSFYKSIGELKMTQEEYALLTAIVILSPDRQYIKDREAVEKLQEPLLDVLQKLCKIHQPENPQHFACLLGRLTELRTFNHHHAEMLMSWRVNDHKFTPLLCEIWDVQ
Chain of UniProt P19793 (P19793 whole entry, looked up): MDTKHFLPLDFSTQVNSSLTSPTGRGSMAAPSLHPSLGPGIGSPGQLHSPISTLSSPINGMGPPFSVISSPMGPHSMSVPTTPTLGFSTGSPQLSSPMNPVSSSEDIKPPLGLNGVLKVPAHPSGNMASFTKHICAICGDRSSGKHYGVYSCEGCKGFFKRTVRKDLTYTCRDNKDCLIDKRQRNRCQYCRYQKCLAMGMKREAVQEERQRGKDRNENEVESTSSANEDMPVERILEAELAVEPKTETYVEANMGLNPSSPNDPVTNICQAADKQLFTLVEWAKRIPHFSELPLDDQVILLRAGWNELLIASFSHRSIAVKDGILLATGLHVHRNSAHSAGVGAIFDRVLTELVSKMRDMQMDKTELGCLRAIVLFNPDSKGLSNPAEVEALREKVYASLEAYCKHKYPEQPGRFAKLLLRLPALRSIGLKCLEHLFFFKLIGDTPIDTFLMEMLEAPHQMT

Oc1ccc(Cc2ccccc2O)cc1
inconclusive: Potency [1] 0.0195 µM [cytotoxic, full curve, poor fit] | activity change, negative = inhibition [2] -4.7% | Potency [8] 68.6 µM [rising, partial curve, poor fit]
inactive: Potency [3] | Potency [4] | Potency [5] | Potency [6] | Potency [7]

NC(=O)NNc1ccccc1
inconclusive: Potency [9] 1.94 µM [cytotoxic, partial curve, poor fit] | Potency [6] 61.4 µM [cytotoxic, single point]
inactive: Potency [7] | Potency [10]

CC(=O)[C@H]1CC[C@H]2[C@@H]3C=CC4=CC(=O)CC[C@@]4(C)[C@@H]3CC[C@]12C
inactive: Potency [6]
inconclusive: activity change, negative = inhibition [2] -29.8% | Potency [3] 13.3 µM [cytotoxic, single point] | Potency [7] 75 µM [inhibitor, single point] | activation [10] -26.5% [at 35.3 µM]

C=C(CC(=O)O)C(=O)O
inconclusive: Potency [12] 56 µM [activator, single point] | Potency [3] 7.21 µM [rising, partial curve, poor fit]
inactive: Potency [11] | Potency [1] | Potency [4] | Potency [6] | Potency [7] | Potency [8]

CCC(=O)c1ccc2c(c1)N(CCCN(C)C)c1ccccc1S2
inactive: Potency [6]
inconclusive: Potency [11] 29.8 µM [rising, single point] | Potency [1] 26.6 µM [cytotoxic, partial curve, poor fit] | ratio activity, negative = inhibition [12] -34.4% | Potency [3] 29.8 µM [cytotoxic] | Potency [13] 13.3 µM [falling, partial curve, poor fit] | activation [14] -22.7% | Potency [5] 23.9 µM [rising, partial curve, poor fit] | Potency [15] 21.1 µM [cytotoxic, partial curve, poor fit] | Potency [16] 0.213 µM [cytotoxic, single point] | Potency [17] 21.3 µM [activator, partial curve] | Potency [10] 23.9 µM [inhibitor, partial curve, poor fit] | Potency [18] 23.9 µM [cytotoxic, partial curve]

CCC(=O)C(=O)CC
inconclusive: Potency [6] 22.8 µM [rising, partial curve, poor fit]
inactive: Potency [11] | Potency [5] | Potency [7]

COc1cc([C@H]2Oc3cc([C@H]4Oc5cc(O)cc(O)c5C(=O)[C@@H]4O)ccc3O[C@@H]2CO)ccc1O
inconclusive: Potency [3] 0.0944 µM [rising, partial curve, poor fit] | Potency [5] 21.8 µM [fluorescent] | activity change, negative = inhibition [5] -3.64% | Potency [6] 27.5 µM [cytotoxic, partial curve, poor fit] | Potency [7] 60.9 µM [inhibitor, partial curve, poor fit] | Potency [10] 17.3 µM [activator, partial curve]
48.8 µM (inconclusive) and inactive: Potency [9]

C#C[C@]1(OC(C)=O)CC[C@H]2[C@@H]3CCC4=C[C@@H](OC(C)=O)CC[C@@H]4[C@H]3CC[C@@]21C
inconclusive: Potency [2] 33.5 µM [inhibitor] | activation [4] 10.1% | activity change, negative = inhibition [5] 2.98% | Potency [6] 0.239 µM [cytotoxic, partial curve, poor fit] | Potency [16] 26.8 µM [cytotoxic] | Potency [17] 26.8 µM [activator, single point] | Potency [10] 26.8 µM [inhibitor] | Potency [18] 26.8 µM [cytotoxic, single point]
inactive: Potency [11] | Potency [3] | Potency [14]

Cc1cccc2cccnc12
inactive: Potency [9]
inconclusive: Potency [6] 43.3 µM [cytotoxic, single point] | Potency [7] 6.81 µM [inhibitor, single point]

Nc1cccc(O)c1
inactive: Potency [12] | Potency [6] | Potency [7]
inconclusive: activation [11] 2.44% [at 81.1 µM] | Potency [2] 56.6 µM [inhibitor, single point] | Potency [9] 63.5 µM [cytotoxic, single point]

CC(C)=CCO
inconclusive: Potency [12] 20 µM [fluorescent, partial curve] | ratio activity, negative = inhibition [12] 6.43% | Potency [3] 0.0178 µM [rising, full curve, poor fit] | activity change, negative = inhibition [5] 9.52% | Potency [9] 5.49 µM [rising, full curve, poor fit] | Potency [6] 0.0055 µM [rising, full curve, poor fit]
inactive: Potency [16] | Potency [10]
